{"source": "the antibiotic and cytotoxicity screens of Wong et al. (2023)", "note": "The other results are listed elsewhere or left out.", "data": [{"tested_on": "HSkMC (human skeletal muscle cells)", "experiment": "cytotoxicity call (relative viability < 0.9)", "conditions": "10 µM", "values": [{"compound": "CC(C)N(CCOc1c(Br)cc(/C=C/C(=O)NCCCOc2c(Br)cc(CCN(C)C)cc2Br)cc1Br)C(C)C", "cytotoxicity call": "active"}, {"compound": "C[C@H]1CCCCO[C@@H](CN(C)S(=O)(=O)c2ccc(F)cc2)[C@@H](C)CN([C@@H](C)CO)C(=O)c2cc(NS(=O)(=O)c3ccc(Cl)cc3)ccc2O1", "cytotoxicity call": "inactive"}, {"compound": "Cc1ccc(S(=O)(=O)Nc2ccc3c(c2)C(=O)N([C@@H](C)CO)C[C@H](C)[C@@H](CN(C)S(=O)(=O)c2ccc(C)cc2)OCCCC[C@@H](C)O3)cc1", "cytotoxicity call": "inactive"}, {"compound": "Clc1ccc(-c2csc(-c3ccc4c(c3)CCO4)n2)s1", "cytotoxicity call": "inactive"}, {"compound": "Cc1cc(C2(c3cc(C)c(N)c(C)c3)CCCCC2)cc(C)c1N", "cytotoxicity call": "inactive"}, {"compound": "CO[C@@H]1CN(C)C(=O)c2cc(NC(=O)C3CC3)ccc2OC[C@@H](C)N(C(=O)C2CCOCC2)C[C@H]1C", "cytotoxicity call": "inactive"}, {"compound": "COCCCOc1cc(C[C@@H](C[C@H](N)[C@@H](O)C[C@H](C(=O)NCC(C)(C)C(N)=O)C(C)C)C(C)C)ccc1OC", "cytotoxicity call": "inactive"}, {"compound": "COc1ccc(S(=O)(=O)N(C)C[C@@H]2Oc3c(NS(=O)(=O)c4ccc(F)cc4)cccc3C(=O)N([C@@H](C)CO)C[C@@H]2C)cc1", "cytotoxicity call": "inactive"}, {"compound": "C[C@H](CO)N1C[C@H](C)[C@H](CN(C)C(=O)c2ccccc2)OCCCC[C@H](C)Oc2ccc(NC(=O)Nc3ccc4c(c3)OCO4)cc2C1=O", "cytotoxicity call": "inactive"}, {"compound": "C[C@H](CO)N1C[C@H](C)[C@@H](CN(C)S(=O)(=O)c2ccccc2)Oc2ccc(NS(C)(=O)=O)cc2C1=O", "cytotoxicity call": "inactive"}, {"compound": "C[C@@H]1CN([C@H](C)CO)C(=O)Cc2cc(NC(=O)CCCN(C)C)ccc2O[C@H]1CN(C)C(=O)Nc1ccc2c(c1)OCO2", "cytotoxicity call": "inactive"}, {"compound": "C[C@@H]1CN([C@@H](C)CO)C(=O)CCCn2cc(nn2)CO[C@H]1CN(C)C(=O)c1cc(-c2ccccc2)on1", "cytotoxicity call": "inactive"}, {"compound": "C[C@H](CO)N1C[C@H](C)[C@@H](CN(C)C(=O)Nc2ccc3c(c2)OCO3)Oc2ccc(NC(=O)c3ccncc3)cc2C1=O", "cytotoxicity call": "inactive"}, {"compound": "CCc1nc2ccc(C(=O)N3CCN(S(=O)(=O)CC)CC3)cn2c1N(C)Cc1ccc(Cl)cc1", "cytotoxicity call": "inactive"}, {"compound": "C[C@H](CO)N1C[C@H](C)[C@@H](CN(C)Cc2ccccc2)Oc2ccc(NC(=O)Cn3cnnn3)cc2CC1=O", "cytotoxicity call": "inactive"}, {"compound": "C[C@@H]1CN([C@@H](C)CO)C(=O)c2cc(C#CC3(O)CCCC3)cnc2O[C@@H]1CN(C)C(=O)Nc1ccc2c(c1)OCO2", "cytotoxicity call": "inactive"}, {"compound": "Cc1ccccc1S(=O)(=O)N1C[C@@H](O)COC[C@@H]2O[C@@H](CC(=O)NCCc3ccccc3)CC[C@H]21", "cytotoxicity call": "inactive"}, {"compound": "C[C@H]1CN([C@@H](C)CO)S(=O)(=O)c2ccc(C#CCN(C)C)cc2O[C@@H]1CN(C)Cc1cccnc1", "cytotoxicity call": "inactive"}, {"compound": "COCC#Cc1ccc([C@H]2[C@@H](CO)N3C(=O)CN(C(=O)c4ccncc4)C[C@@H]23)cc1", "cytotoxicity call": "inactive"}, {"compound": "NC(C(=O)NC1C(=O)N2C(C(=O)O)=C(Cl)CSC12)c1ccccc1", "note": "(stereo not given)", "cytotoxicity call": "inactive"}, {"compound": "Cn1cc(C(=O)NCc2cn3c(n2)CNCC3)cn1", "cytotoxicity call": "inactive"}, {"compound": "COCC(=O)N(C)C[C@H]1Oc2cc(-c3ccc(OC)cc3)ccc2S(=O)(=O)N([C@H](C)CO)C[C@H]1C", "cytotoxicity call": "inactive"}, {"compound": "C[C@@H]1CN([C@@H](C)CO)C(=O)c2cc(NC(=O)C3CCCCC3)ccc2O[C@@H]1CN(C)S(=O)(=O)c1cn(C)cn1", "cytotoxicity call": "inactive"}, {"compound": "COCC(=O)N1C[C@]2(C1)CN([C@H](CO)c1c2c2ccc(cc2n1C)OC)C(=O)CN1CCOCC1", "cytotoxicity call": "inactive"}, {"compound": "Nc1nc(=O)n([C@H]2C[C@H](O)[C@@H](CO)O2)cc1O", "cytotoxicity call": "inactive"}, {"compound": "NCc1ccc(S(N)(=O)=O)cc1", "cytotoxicity call": "inactive"}, {"compound": "COCC#Cc1cnc2c(c1)C(=O)N([C@H](C)CO)C[C@@H](C)[C@H](CN(C)C(=O)Nc1cc(F)ccc1F)O2", "cytotoxicity call": "inactive"}, {"compound": "C[C@@H]1CCCCO[C@H](CN(C)C(=O)C2CCCCC2)[C@H](C)CN([C@H](C)CO)C(=O)c2cc(NS(=O)(=O)c3ccc(Cl)cc3)ccc2O1", "cytotoxicity call": "inactive"}, {"compound": "C[C@@H]1CN([C@H](C)CO)C(=O)c2cc(NC(=O)C3CCCCC3)ccc2O[C@@H](C)CCCCO[C@H]1CN(C)C(=O)NC1CCCCC1", "cytotoxicity call": "inactive"}, {"compound": "C[C@H](CO)N1C[C@H](C)[C@@H](CN(C)Cc2ccc(-c3ccccc3)cc2)Oc2ccc(NC(=O)Nc3ccccc3)cc2CC1=O", "cytotoxicity call": "inactive"}, {"compound": "C=C1C[C@@]23CC[C@@H]4[C@@](C)(CCC[C@@]4(C)C(=O)OC)[C@H]2CC[C@@H]1C3", "cytotoxicity call": "inactive"}, {"compound": "Cn1cnc(S(=O)(=O)N2C[C@H](O)COC[C@H]3O[C@@H](CC(=O)NC4CCC4)CC[C@@H]32)c1", "cytotoxicity call": "inactive"}, {"compound": "C[C@H](CO)N1C[C@H](C)[C@H](CN(C)S(=O)(=O)c2cn(C)cn2)Oc2cc(C#Cc3ccc(F)cc3)ccc2S1(=O)=O", "cytotoxicity call": "inactive"}, {"compound": "C[C@H](CO)N1C[C@H](C)[C@@H](CN(C)Cc2ccc(-c3ccccc3)cc2)Oc2ccc(NC(=O)Nc3ccc(F)cc3)cc2C1=O", "cytotoxicity call": "inactive"}, {"compound": "C[C@H](CO)N1C[C@H](C)[C@H](CN(C)Cc2ccc(C(F)(F)F)cc2)Oc2ccc(NC(=O)Nc3cccc4ccccc34)cc2CC1=O", "cytotoxicity call": "inactive"}, {"compound": "N[C@H]1CCN(c2nc3c(cc2F)c(=O)c(C(=O)O)cn3-c2ccc(F)cc2F)C1", "cytotoxicity call": "inactive"}, {"compound": "CC(C)NC(=O)Nc1ccc2c(c1)C(=O)N([C@@H](C)CO)C[C@H](C)[C@@H](CN(C)C(=O)C1CCCCC1)OCCCC[C@H](C)O2", "cytotoxicity call": "inactive"}, {"compound": "CC1=CCc2c(cc3oc(C)cc(=O)c3c2O)OC1", "cytotoxicity call": "inactive"}, {"compound": "C[C@H]1CN([C@@H](C)CO)S(=O)(=O)c2ccc(C#CC(C)(C)O)cc2O[C@@H]1CN(C)Cc1ccccc1", "cytotoxicity call": "inactive"}, {"compound": "C[C@H](CO)N1C[C@H](C)[C@H](CN(C)C(=O)Nc2ccc(F)cc2)Oc2ncc(-c3cc4ccccc4o3)cc2C1=O", "cytotoxicity call": "inactive"}]}]}
